Over roughly 1,400 sequences, “thermal melting temperature (Tm) of peptide-HLA complex” has its median near 60; the lowest 2% begin near 45. The list shows a part of the results.
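Also: cell lysates heated 10 min at 37–73 °C, remaining pHLA pulled down with pan-class I antibody, peptides quantified by DIA-MS versus 37 °C, Tm where half the complex is lost.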

The target in this assay is HLA-B*07:02. The assay can be described thus: thermal melting temperature (Tm) of peptide-HLA complex; higher = more thermostable pHLA complex. The conditions noted are these: C1R-B*07:02.
SPRSVLEEM displayed a thermal melting temperature of 54.7 °C.

RPRPPVLSV: the thermal melting temperature turned out to be 65.5 °C.

The sequence TPRGAGSYTIM returned a thermal melting temperature of 50.2 °C.

Regarding SPHIPYKLL, the thermal melting temperature was 60.3 °C.

For the sequence GPRSAQVAQSL, the thermal melting temperature came to 40.4 °C.

Take RPISDFLTL: the thermal melting temperature is 63.2 °C.

With SPRDPENFPF, the thermal melting temperature was 63.2 °C.

GPREAVSGL registered a thermal melting temperature of 57.4 °C.

The sequence KPRVTPVEV showed a thermal melting temperature of 55.9 °C.

Regarding APLPERNSL, the thermal melting temperature stood at 56.1 °C.

Sequence APRQPGLMAQM had a thermal melting temperature of 61.9 °C.

On to TPMGPGRTV, for which the thermal melting temperature was 54.4 °C.

The sequence YPSDHRITTF gave a thermal melting temperature of 59.8 °C.

Sequence RGPGPLTL came in with a thermal melting temperature of 58.8 °C.

Consider QPSIPRMFL, for which the thermal melting temperature stood at 61.2 °C.

Sequence TPSRKGLVL gave a thermal melting temperature of 59 °C.

As to KPAGPPGIL, the thermal melting temperature stood at 59.6 °C.

Sequence RPFADLLGTAF registered a thermal melting temperature of 60 °C.

Sequence APRKPDWDL showed a thermal melting temperature of 60.4 °C.

With TPRRPAGLL, the thermal melting temperature is 62 °C.

LPSGDRVAVSV: the thermal melting temperature was found to be 61 °C.

Turning to FPNIPGKSL, the thermal melting temperature was found to be 62 °C.

Sequence LPNGRDTPAL returned a thermal melting temperature of 59.2 °C.

As to TPRSTVGVVAL, the thermal melting temperature amounted to 59.3 °C.

In the case of TPRDLAVPAAL, the thermal melting temperature came to 60.4 °C.

With HNESWVLL, the thermal melting temperature turned out to be 45.5 °C.

With LSRPPSPLSL, the thermal melting temperature amounted to 62.3 °C.

LPSKEHVDVI returned a thermal melting temperature of 44.8 °C.

The sequence APAGGSPRML gave a thermal melting temperature of 50 °C.

APSPPLRAL: the thermal melting temperature amounted to 62.3 °C.

With VPNATIRNVL, the thermal melting temperature amounted to 59.4 °C.

Sequence KPILSTRSL displayed a thermal melting temperature of 59.9 °C.

The sequence SPLPVGQNSL gave a thermal melting temperature of 62.5 °C.

Sequence VPQPSGRTL returned a thermal melting temperature of 56.9 °C.

Take SPIQKPQGL: the thermal melting temperature was 56.5 °C.

Turning to VPRETAIQF, the thermal melting temperature is 61 °C.

The values above are taken from the supplement of paper PMC7726561.
